From PubChem BioAssay AID463173 (ICCB-Longwood Screening Facility, Harvard Medical School, 2010)
Among all 52,000 compounds or so, about 1,700 (3.3%) were called active. Cut-off read from the data, not from the text of the source: active = survival mostly below about 52% (no sharp cut-off); inactive = mostly above about 56%. The list shows a part of the results.

The compounds below were run on Wild type (assay: growth inhibition of S. aureus wild type versus tarO mutant, primary screen, teichoic acid synthesis inhibitors, RN4220, OD600 (AID 463173)). Conditions: S. aureus RN4220 wild type/DeltatarO growth, OD600, 18 h, active compounds read low, screened at 18.75 µg/mL (by protocol).
With `CCOc1ccccc1NC(=O)CN1CCCN(Cc2cccc(Cl)c2)S1(=O)=O` the survival was inactive: 70%.
With `O=C(O)C(c1ccccc1)N1CCCC1` (stereo unspecified) the survival was inactive: 89%.
In the case of `COc1cc(C(=O)OCc2cc(=O)n3nc(C(C)C)sc3n2)cc(OC)c1OC`, the survival is reported as inactive: 78%.
With `CCc1ccc(NC(=O)c2nnn(Cc3cccc(C(F)(F)F)c3)c2N)cc1` the survival was inactive: 84%.
In the case of `COc1cccc(CNC(=O)c2ccc3c(c2)nc2n3CCCCC2)c1OC`, the survival is reported as inactive: 55%.
With `COc1cccc(CNC(=O)COCc2cc(-c3ccc4c(c3)OCO4)on2)c1` the survival was inactive: 32%.
For `CC1CCC2(CC1)N=C(c1ccccc1)C(=O)N2CC(=O)Nc1ccc(F)c(Cl)c1` (stereo unspecified), the survival was inactive: 67%.
With `CCOC(=O)c1cccc(NS(=O)(=O)c2cc3[nH]c(=O)c(=O)[nH]c3cc2C)c1` the survival was inactive: 68%.
In the case of `Cc1nc2ncnn2c(C)c1CCC(=O)N1CCN(c2cccc(Cl)c2)CC1`, the survival is reported as inactive: 72%.
`Cc1cccc(-n2c(C)nc3cc(C(=O)NC4CCCCCC4)ccc32)c1` was tested, and the survival was inactive: 80%.
`COc1ccc(NC(=O)Nc2c[nH]c(=O)[nH]c2=O)c(OC)c1` was tested, and the survival was inactive: 70%.
In the case of `CCc1ccc(NC(=O)C2=CC(c3ccc4c(c3)OCO4)=NS(=O)(=O)N2C)cc1`, the survival is reported as inactive: 96%.
For `CC(NC1=NCCN1)C(=O)O` (stereo unspecified), the survival was inactive: 104%.
`Cc1c(C(=O)N(Cc2ccc(Cl)cc2)CC2CCCO2)oc2ccc(F)cc12` (stereo unspecified) was tested, and the survival was inactive: 77%.
With `COc1ccccc1CNC(=O)CSc1ncc2c(n1)-c1cc(Cl)ccc1N(Cc1ccccc1)S2(=O)=O` the survival was inactive: 73%.
`CCOc1ccc(-c2nc(SCC(=O)NCCCOC)c(-c3ccccc3)[nH]2)cc1` was tested, and the survival was inactive: 141%.
For `CCn1c(CN2CCOCC2)nc2cc(NC(=O)c3ccc([N+](=O)[O-])cc3)ccc21`, the survival was inactive: 90%.
For `Cc1ccc2c(c1)cc(CN(Cc1ccco1)C(=O)N(C)C)c1nnnn12`, the survival was inactive: 107%.
With `CSc1ccc(CC2C(=O)Nc3ccccc32)cc1` (stereo unspecified) the survival was inactive: 73%.
For `CCN(CC)C(=O)Cn1cc(/C=C(\C#N)C(N)=O)c2ccccc21`, the survival was inactive: 124%.
`COC(=O)CSc1nnc(-c2ccccc2)n1C` was tested, and the survival was inactive: 102%.
With `O=C(Cc1ccccc1F)N1CCC(c2nc3c(nnn3Cc3ccc(F)cc3)c(=O)[nH]2)CC1` the survival was inactive: 98%.
In the case of `O=C(CS(=O)(=O)c1cccc2nsnc12)Nc1cc(F)ccc1F`, the survival is reported as inactive: 97%.
`CC(=O)/C=C(\C)Nc1ccccc1S` was tested, and the survival was inactive: 114%.
In the case of `COc1cc2c(-c3ccc(C)cc3)nc3c(c(C)nn3-c3ccccc3)c2cc1OC`, the survival is reported as inactive: 71%.
In the case of `N#C/C(=C\c1ccccc1)C(=O)Nc1sc2c(c1C(N)=O)CCC2`, the survival is reported as inactive: 75%.
